Source: patent US11407811B2, “Fusion protein, preparation method therefor and use thereof” (JIANGSU RONGTAI BIOTECH CO., LTD., priority 2017, dated 2022)

What was measured:
[1] = system: colon cancer cells HCT-116; assay: MTT assay, proliferation of colon cancer cell HCT-116; assay type: cell-based
Procedure: (§1) The MTT assay was used to detect the inhibitory effect of the integrin blocker fusion protein obtained in Example 1 on the proliferation of various tumor cells, including melanoma cell B16F10, gastric cancer cell MGC-803, lung cancer cell A549, liver cancer cell Hep-G2, breast cancer cell MDA-MB-231, colon cancer cell HCT-116, human glioma U87, and cervical cancer cell Hela.
(§2) The tumor cells were cultured in a 5% CO2 incubator at 37° C. to a density of 90% or more, and collected by trypsinization. The cells were resuspended in the culture liquid and counted under a microscope. The cell concentration was adjusted to 3.0×10^4 cells/mL. The cell suspension was inoculated into a 96-well plate at 100 μL per well and cultured overnight in a 5% CO2 incubator at 37° C. […] After the cells were fully adhered, each dilution was added to a 96-well plate at 100 μL per well, respectively. […] 20 μL of 5 mg/mL MTT was added to each well of a 96-well plate, and incubation was continued for 4 hours. The medium was aspirated and 100 μL of DMSO per well were added to dissolve. The absorbance was measured at 570 nm with a microplate reader with a reference wavelength of 630 nm, and the proliferation inhibition (PI) was calculated. The formula is as follows: […]
(§3) where Ntest is the OD value of the test group and Ncontrol is the OD value of the blank control group.
(§4) The test was repeated 5 times independently. The results obtained from the test were calculated as mean±SD, and statistical t-test was performed. P<0.05 was considered as a significant difference, and P<0.01 was considered as an extremely significant difference.

[2] = system: neovascularization in premature rat retinopathy model; assay: Neovascularization in premature rat retinopathy model (fluctuating oxygen-induced); assay type: in vivo; settings: for Nucleus number (nucleus count of vascular endothelial cells): 100 μg intravitreal injection on day 7, counted on day 14, per section per eyeball; for nucleus counts of retinal vascular endothelial cells: intravitreal injection, dose of 100, day 14, oxygen model group 27.452±2.110
Procedure: A fluctuating oxygen-induced animal model was adopted, and newborn rats (within 12 hours) spontaneously delivered on the same day were randomly divided into three groups: an oxygen model group, an oxygen treatment group, and a normal control group. The oxygen model was subdivided into three model subgroups, which were placed in a semi-closed oxygen chamber made of plexiglass together with the treatment group. The medical oxygen was introduced into the chamber, and the oxygen concentration was adjusted to 80%±2% with an oxygen meter. After 24 hours, nitrogen gas was introduced into the oxygen chamber, and then the oxygen concentration was rapidly adjusted to 10%±2% and maintained for 24 hours. The operation was repeated, the oxygen concentration in the oxygen chamber was maintained to be alternated between 80% and 10% every 24 hours for 7 days, and then the rats were transferred to the air and fed. The oxygen concentration was monitored 8 times a day, and the ambient temperature in the chamber was controlled to 23° C.±2° C. The litter was replaced, food was added, water was changed, and mother rat was replaced once. The normal control group was placed in an animal house feeding environment.
The oxygen treatment group was divided into two sub-groups. On day 7 of modeling, the administration was performed via intravitreal injection, in which the fusion protein I, protein II, protein III, protein IV, and protein V were administered at a dose of 100 respectively. The oxygen model group and the control group were given only physiological saline for one week.
On day 14, after the rats was sacrificed with ether anesthesia, the eyeballs were removed and fixed in a 40 g/L paraformaldehyde solution for 24 hours. The eyeballs were dehydrated with gradient alcohols and hyalinized with xylene. After being immersed in wax, the eyeballs were continuously sectioned to a thickness of 4 avoiding the surrounding of the optic disc as much as possible. The sections were parallel to the sagittal plane of the cornea to the optic disc. 10 sections were randomly selected from each eyeball to be stained with hematoxylin and eosin, and the nucleus of vascular endothelial cells that broke through the inner limiting membrane of the retina was counted (only the nucleus of vascular endothelial cells closely related to the inner limiting membrane were counted), and the average number of cells per section per eyeball was counted.

[3] = system: breast cancer cell MDA-MB-231; assay: MTT assay, proliferation of breast cancer cell MDA-MB-231; assay type: cell-based
Procedure: as §1, §2, §3, §4

[4] = system: xylene-induced ear swelling in mice; assay: Xylene-induced ear swelling in mice; assay type: in vivo; settings: for Swelling degree / PI: injection; for Swelling degree: 2 h after xylene, mice; for PI: ear swelling vs control; for inhibition of xylene-induced ear swelling: high doses
Procedure: 80 Kunming mice were divided into 8 groups with 10 mice for each group and numbered. A physiological saline group was used as a blank control group, an aspirin group (200 mg/kg) was used as a positive control group, and fusion protein I, protein II, protein III, protein IV and protein V at high, medium and low doses (128, 32, 8 mg/kg) were used as experimental groups. Mice were administered once by injection, while EDSM needed to be administered twice a day for 5 consecutive days. The blank control group was given an equal volume of physiological saline. After the fifth day, 0.05 mL of xylene was applied to both sides of the right ears of the mice to induce inflammation, and the left ears were not applied and were normal ears. After 2 h, the mice were sacrificed by dislocation, and the ears were cut along the auricle. Ear pieces were taken with a puncher and weighed, and the swelling degree and swelling rate were calculated. Swelling degree=right ear piece weight-left ear piece weight, swelling rate=(swelling degree/left ear piece weight)×100%.

B1: Protein III: mIgG4-Fc linked to antiangiogenesis polypeptide EDSM-Y via a flexible linker; SEQ ID NO: 19 (protein)
chain: [sequence of human IgG4 Fc with S228P F234A L235A (EU numbers) and a few adjoining residues not given]GGGGSGGGGSGGGGSFQPVLHLVALNSPLSGGMRGIRGADFQCFQQARAVGLAGTFRAGGGGRGD
A570 nm/A630 nm ([1]; dose 1 μg/mL): 0.8333 ± 0.0414 | PI (%) ([1]; dose 1 μg/mL): 5.33% | A570 nm/A630 nm ([1]; dose 2 μg/mL): 0.7964 ± 0.0397 | PI (%) ([1]; dose 2 μg/mL): 9.52% | A570 nm/A630 nm ([1]; dose 4 μg/mL): 0.7623 ± 0.0382 | PI (%) ([1]; dose 4 μg/mL): 13.39% | A570 nm/A630 nm ([1]; dose 8 μg/mL): 0.7022 ± 0.0351 | PI (%) ([1]; dose 8 μg/mL): 20.22% | A570 nm/A630 nm ([1]; dose 16 μg/mL): 0.6663 ± 0.0298 | PI (%) ([1]; dose 16 μg/mL): 24.30% | A570 nm/A630 nm ([1]; dose 32 μg/mL): 0.6023 ± 0.0276 | PI (%) ([1]; dose 32 μg/mL): 31.57% | A570 nm/A630 nm ([1]; dose 64 μg/mL): 0.5557 ± 0.0219 | PI (%) ([1]; dose 64 μg/mL): 36.87% | A570 nm/A630 nm ([1]; dose 128 μg/mL): 0.4878 ± 0.0253 | PI (%) ([1]; dose 128 μg/mL): 44.58% | A570 nm/A630 nm ([1]; dose 256 μg/mL): 0.4502 ± 0.0238 | PI (%) ([1]; dose 256 μg/mL): 48.85% | Nucleus number (nucleus count of vascular endothelial cells) [2]: 6.471 ± 2.017 | nucleus counts of retinal vascular endothelial cells [2]: 6.471±2.017 | A570 nm/A630 nm ([3]; dose 1 μg/mL): 0.9913 ± 0.0412 | PI (%) ([3]; dose 1 μg/mL): 4.57% | A570 nm/A630 nm ([3]; dose 2 μg/mL): 0.9663 ± 0.0392 | PI (%) ([3]; dose 2 μg/mL): 6.98% | A570 nm/A630 nm ([3]; dose 4 μg/mL): 0.9103 ± 0.0387 | PI (%) ([3]; dose 4 μg/mL): 12.37% | A570 nm/A630 nm ([3]; dose 8 μg/mL): 0.8714 ± 0.0354 | PI (%) ([3]; dose 8 μg/mL): 16.11% | A570 nm/A630 nm ([3]; dose 16 μg/mL): 0.7956 ± 0.0291 | PI (%) ([3]; dose 16 μg/mL): 23.41% | A570 nm/A630 nm ([3]; dose 32 μg/mL): 0.7601 ± 0.0275 | PI (%) ([3]; dose 32 μg/mL): 26.83% | A570 nm/A630 nm ([3]; dose 64 μg/mL): 0.6963 ± 0.0211 | PI (%) ([3]; dose 64 μg/mL): 32.97% | A570 nm/A630 nm ([3]; dose 128 μg/mL): 0.6613 ± 0.0255 | PI (%) ([3]; dose 128 μg/mL): 36.34% | A570 nm/A630 nm ([3]; dose 256 μg/mL): 0.6213 ± 0.0230 | PI (%) ([3]; dose 256 μg/mL): 40.19% | Swelling degree ([4]; 8 mg/kg): 6.18 ± 0.29 mg | PI ([4]; 8 mg/kg): 7.07% | Swelling degree ([4]; 32 mg/kg): 5.23 ± 0.16 mg | PI ([4]; 32 mg/kg): 21.35% | Swelling degree ([4]; 128 mg/kg): 4.31 ± 0.22 mg | PI ([4]; 128 mg/kg): 35.19% | inhibition of xylene-induced ear swelling [4]: could significantly inhibit xylene-induced ear swelling

B2: Protein I: IgG1-Fc linked to antiangiogenesis polypeptide EDSM-Y via a flexible linker; SEQ ID NO: 15 (protein)
chain: [sequence of human IgG1 Fc not given]GGGGSGGGGSGGGGSFQPVLHLVALNSPLSGGMRGIRGADFQCFQQARAVGLAGTFRAGGGGRGD
A570 nm/A630 nm ([1]; dose 1 μg/mL): 0.8205 ± 0.0411 | PI (%) ([1]; dose 1 μg/mL): 6.78% | A570 nm/A630 nm ([1]; dose 2 μg/mL): 0.7859 ± 0.0382 | PI (%) ([1]; dose 2 μg/mL): 10.71% | A570 nm/A630 nm ([1]; dose 4 μg/mL): 0.7587 ± 0.0371 | PI (%) ([1]; dose 4 μg/mL): 13.80% | A570 nm/A630 nm ([1]; dose 8 μg/mL): 0.7110 ± 0.0413 | PI (%) ([1]; dose 8 μg/mL): 19.22% | A570 nm/A630 nm ([1]; dose 16 μg/mL): 0.6778 ± 0.0285 | PI (%) ([1]; dose 16 μg/mL): 22.99% | A570 nm/A630 nm ([1]; dose 32 μg/mL): 0.6114 ± 0.0331 | PI (%) ([1]; dose 32 μg/mL): 30.54% | A570 nm/A630 nm ([1]; dose 64 μg/mL): 0.5468 ± 0.0296 | PI (%) ([1]; dose 64 μg/mL): 37.88% | A570 nm/A630 nm ([1]; dose 128 μg/mL): 0.4988 ± 0.0315 | PI (%) ([1]; dose 128 μg/mL): 43.33% | A570 nm/A630 nm ([1]; dose 256 μg/mL): 0.4458 ± 0.0324 | PI (%) ([1]; dose 256 μg/mL): 49.35% | Nucleus number (nucleus count of vascular endothelial cells) [2]: 6.502 ± 2.011 | nucleus counts of retinal vascular endothelial cells [2]: 6.502±2.011 | A570 nm/A630 nm ([3]; dose 1 μg/mL): 0.9977 ± 0.0403 | PI (%) ([3]; dose 1 μg/mL): 3.96% | A570 nm/A630 nm ([3]; dose 2 μg/mL): 0.9665 ± 0.0397 | PI (%) ([3]; dose 2 μg/mL): 6.96% | A570 nm/A630 nm ([3]; dose 4 μg/mL): 0.9201 ± 0.0382 | PI (%) ([3]; dose 4 μg/mL): 11.43% | A570 nm/A630 nm ([3]; dose 8 μg/mL): 0.8815 ± 0.0410 | PI (%) ([3]; dose 8 μg/mL): 15.14% | A570 nm/A630 nm ([3]; dose 16 μg/mL): 0.8006 ± 0.0287 | PI (%) ([3]; dose 16 μg/mL): 22.93% | A570 nm/A630 nm ([3]; dose 32 μg/mL): 0.7586 ± 0.0336 | PI (%) ([3]; dose 32 μg/mL): 26.97% | A570 nm/A630 nm ([3]; dose 64 μg/mL): 0.6988 ± 0.0296 | PI (%) ([3]; dose 64 μg/mL): 32.73% | A570 nm/A630 nm ([3]; dose 128 μg/mL): 0.6587 ± 0.0314 | PI (%) ([3]; dose 128 μg/mL): 36.59% | A570 nm/A630 nm ([3]; dose 256 μg/mL): 0.6023 ± 0.0327 | PI (%) ([3]; dose 256 μg/mL): 42.02% | Swelling degree ([4]; 8 mg/kg): 6.24 ± 0.26 mg | PI ([4]; 8 mg/kg): 6.17% | Swelling degree ([4]; 32 mg/kg): 5.08 ± 0.32 mg | PI ([4]; 32 mg/kg): 23.61% | Swelling degree ([4]; 128 mg/kg): 4.03 ± 0.27 mg | PI ([4]; 128 mg/kg): 39.40% | inhibition of xylene-induced ear swelling [4]: could significantly inhibit xylene-induced ear swelling
